In the supplement of paper PMC10681739:
Whole data set: some 4,000 sequences, median “arbitrary fluorescence units” near 830, cut for the highest 2% near 6,500. This part holds few or none of the hits.

Target: RUNX1 (UniProt Q01196)
Test: RUNX1 binding intensity (PBM fluorescence), RUNX1 alone (arbitrary fluorescence units); higher = stronger binding
Conditions: RUNX1 concentration 2 nM; ETS1 concentration 0 nM
Description: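 gcPBM on 36-bp genomic-derived probes (partner site mutated) containing one RUNX1 site and no ETS1 site. Recombinant human RUNX1 (2 nM) was incubated alone or with ETS1 (25 nM) and detected by anti-RUNX1 antibody fluorescence. Values are medians over 4 replicate spots (not normalised). The probes sit in constant array flanks that are not printed.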
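Further: Full-length recombinant human RUNX1 bound to double-stranded DNA microarray spots, detected with an Alexa488-labelled secondary antibody after the anti-RUNX1 primary, read as scanned spot fluorescence.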

Sequence of UniProt Q01196 (Q01196 whole entry): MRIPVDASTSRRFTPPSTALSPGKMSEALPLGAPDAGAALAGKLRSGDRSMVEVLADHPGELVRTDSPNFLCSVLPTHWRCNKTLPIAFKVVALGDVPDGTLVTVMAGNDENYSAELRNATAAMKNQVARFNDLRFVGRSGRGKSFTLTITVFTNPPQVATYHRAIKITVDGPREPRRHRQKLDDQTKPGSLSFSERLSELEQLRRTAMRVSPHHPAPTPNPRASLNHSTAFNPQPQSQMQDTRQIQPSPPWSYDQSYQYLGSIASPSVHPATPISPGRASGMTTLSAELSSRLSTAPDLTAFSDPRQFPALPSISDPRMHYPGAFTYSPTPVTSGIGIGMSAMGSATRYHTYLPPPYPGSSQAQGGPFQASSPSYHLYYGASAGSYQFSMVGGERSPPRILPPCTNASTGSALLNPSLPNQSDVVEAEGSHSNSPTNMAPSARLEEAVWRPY

Sequence | RUNX1 binding intensity
CATAGGCAGTGCTCAGCTCTCCTCCACCGCAAGTTT | 829
CTAGAGACGCGGTAGAAAGGTTCAGCCCGCTCCCTG | 767
GCCACATATTTGCTGTGACAACCCTGTGGTGTGGCT | 773
AACTTAGCTTACGGCAAGAAGGCGAGCGGTGGGAGG | 816
CGCCTGCCCCACTTTCGCCCGGACCCGCAGCCCCTA | 1300
GACATCCAGCAAGTGGTGAGAAACCACGTGTGTGTT | 855
GAAAACACAGAAAGCCGTCCGCGCAACCGCGTTGCA | 700
TGTCCGGGCAGCAAGGGGTGCTCTGTGGGCTTGGAG | 691
GTCGCTGTGGTTGCCTGAAACAGCAAATCCTTCTGC | 879
CTGGAAACCACCTCTCGCTCCAGTTCCCAGCACCCC | 1260
TGCAACGCGGTTGCGCGGACGGCTTTCTGTGTTTTC | 785
TCTCCTTTCAGGGAGCTGCACCCAAACCACCCTCAG | 861
CCTGCCCTGCGTGGTTTTGTCACTTGCTGCTCAGAG | 1020
GTTGCAAAGGCGCCCACAACTACTTTCGCTTCTAGT | 821
CTCCAGGGACCACAGCGGGAGAGGCAATAGCCACCA | 847
ACCTAATGGCCACAATGGAGAACTGCAGGGTGTAGA | 761
GCAAACACACCACAGACTGCAGACCCGAAAGAACTT | 1020
ATCGGCAACCAGTGAGCTCATTAGAAACCGCTTATC | 803
TGACTAAGATCGGAAGAAACCACAAAAACACAAAAA | 2220
GGAGGAACAACCACTGGTTGTCCACGTTCCAGTCGT | 680
CAAACCACCTAATTAGGATAATGGAGAGGCAGCCCA | 738
TCAGCTGCGGGATGAGTCAGTGCGAGCAGGGAGCAC | 748
TCTCACCCCGCAAAGACTCCACCCTTGCTGGCCCTT | 1110
TCGGACCAGAACGGAGCAGAGTCGTGCGTGGTTGCT | 745
AACACTACACAGCCTCTCTTGTTGTGGCTGCTGAAC | 797
GGCAACCCAAGGACGTATCTCTGAAACCACACAACA | 1060
TACGCAGCCCACAAGCCCGACAGCATGTCATGAATA | 769

Sequence | RUNX1 binding intensity
TTATCGGAACTGCGGGTTGGGCAGGGAGCAGCATGA | 810
GCCACTCCCGGTCACTCCCCGCTGCGGCCTCGCGCT | 1180
TGTGTAATCCCCACCACAACCTAGGAGGTGGGAAAA | 731
AGCGCCACACCTCCGCTTTGCGGCAGTGTGCGCCCC | 790
GACTATGTGCTTCAGGTCTCCAATACCGCAGGAGGG | 892
AACGTCATTCCCGAGAGCCTGAAGCAGCCGCAGGCC | 915
GCAGGGACCGGGAGTCCATGGCTCTGCCGCAACCCT | 680
TCCGCGGCCCGCAGGAACGCCAGCAAGCCTAGGCCG | 688
ACAAGGAGACATTCAGAGGTTTTTGAGGTCAGGATT | 785
GGGCGGGTCAGCGCAAGTGAGGGCGGTTGAGGCTGG | 716
GGGGCCTCACCGCAGGTTCCACCTCCTTTCTGGGTA | 1740
AGCTTTTCTGAGACCGCGGGCAGGAGGTGACCTCCC | 912
CCACACTGCCCCGCAAGGCGTTGCCGGGTTTTGAGG | 798
AGCTTTCTGTTTGGCCTTGCTGATGTCACCGCATTA | 880
TTGAAAACCACGACTCCTGACACAGTAGTTCCACCT | 1080
ACCCGACCCACAAGCGACCCTGCATGAAGGGCTGGG | 863
CTGGAGCCGTCAGGGTCTGGCCCCTGCGGCCGCGCA | 737
ACGACCGCAGGGGAAAGCAAGCCGGCCAGATGAGAA | 766
CTCTAGAGGCTCCCTGCCCAACCACCAAGAAAAAGC | 915
AGCTGCGGGAACCCCAGTGAGAGTGTGATTGCCTCT | 698
ACCCTCAGCTGCGGCTACAGACACTGCCTAGAATCT | 934
CTAGCCACCGCGGCCCCACCCTCTTACGGCCTCAGC | 1030
TTTGCGGGCGATTCCCTCTCAGGACTCCCGGACAGG | 849
AAACAGCAAATCACAGCAGCGTTGCGGAGTGGAGCA | 714
ACAAGGACTGCCGCCTCCCTGCGGTCCCTCCCCTAC | 920
GCACATGAAAAGCTGCTTTCCGCGTGGTAAATTCAA | 757
TCGGGTTCTGCCAGCTTGCACCGCCCCGCAAGGTCG | 698

Sequence | RUNX1 binding intensity
GCTTCGATTCCCGCCGGGGCTCACCGCGCCCCCCTA | 978
GGGGCAGCAAGTGGAGGTTTGAAGTGGTTTAGAGTA | 782
CAGCGGTCATCATGGTGAAGGAGCAGTTCAGGGAGA | 802
GAGTCACCAACCACCGCCATGGGCCGTAAGCCACCG | 838
GACAAAGCTGCGGCAGGAGGGACGTTTCTGCACTGG | 794
AACCCCTTGCACCGCGGACACAGCTTCTTCTTCCCC | 1080
GCCAGGCGGCCGCAGATCCCCAGAACATACGGGAGC | 935
TCACCTTCTGCCACAACTGTTAAGTTTTCTGAGGCC | 1050
CTCCTGTGGGATCTGACTTCAAGGAGACCACAGATG | 832
TGGCAACCACACATCCACATCCACTGCCTGCTGAAC | 1270
CCTGGGGCCACAAAACTGCCTCCTGCCTGAGGCCAG | 856
GGCGCGGTCGGGGTTAACCCGGAGCTGAAGGATCCC | 859
CGTGAGCCACCGCGCCCGGCCTCGCCCTTGCTGAAG | 965
ACGTACGGGATCTGGGAGGTTTGTTTTGACCACACC | 797
AGCGATTGCCTTCTCGGGCCCCTGGGCTGCGGCAGT | 644
GCTGCGGGCGCCGGCAATCGAGTGGCTCCCTGGCCA | 760
AGCCTCAGGGAACTAGCGTCCCCTAGTGGTAAGAAA | 773
GGGGAGGGACCGCAGGGAGGCGAAAGTCCTTGTTTT | 920
GAGTCCTCGCCGCAAACCCGAGGAGCAGGGTGTGGA | 1140
CCAGCAAAGGGAGCTTGGTCAACCACAGCAGCCTGT | 839
TAGCAGGGAGCCGATTCGCCCTATATGCAACCACTT | 780
CTAGCAACCGCGGGAAGGGGGCGTGGCCGTAAGCCT | 804
TCTTTAGTGTGGTTTTGGTAGGATGGAAAGTAGTTT | 1490
GACCTGGGCAGCAAGAGCGGCATGTGGGGCCCCCTG | 806
CTGGTTTCAATTCCGGGTGCGGCTTCTGTCATAAAG | 886
GGCATTCACTTTCGGTCTGGGGCCTGCGGCGGCGGC | 824
